Measurements from publication PMC4336329 (PLoS ONE, 2015).
In all, about 310,000 compounds went through this assay and about 14,000 (4.5%) showed an effect of 50% or more. The effect is printed as a negative number. The list shows a part of the results.

molecular target: human ether-à-go-go-related gene (hERG) potassium channel (human, UniProt Q12809); experiment: primary screen, population patch clamp on CHO cells stably expressing hERG
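Further: peak tail current of the secondary pulse compared with the same well before compound.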

Sequence of human ether-à-go-go-related gene (hERG) potassium channel (Q12809 whole entry, looked up): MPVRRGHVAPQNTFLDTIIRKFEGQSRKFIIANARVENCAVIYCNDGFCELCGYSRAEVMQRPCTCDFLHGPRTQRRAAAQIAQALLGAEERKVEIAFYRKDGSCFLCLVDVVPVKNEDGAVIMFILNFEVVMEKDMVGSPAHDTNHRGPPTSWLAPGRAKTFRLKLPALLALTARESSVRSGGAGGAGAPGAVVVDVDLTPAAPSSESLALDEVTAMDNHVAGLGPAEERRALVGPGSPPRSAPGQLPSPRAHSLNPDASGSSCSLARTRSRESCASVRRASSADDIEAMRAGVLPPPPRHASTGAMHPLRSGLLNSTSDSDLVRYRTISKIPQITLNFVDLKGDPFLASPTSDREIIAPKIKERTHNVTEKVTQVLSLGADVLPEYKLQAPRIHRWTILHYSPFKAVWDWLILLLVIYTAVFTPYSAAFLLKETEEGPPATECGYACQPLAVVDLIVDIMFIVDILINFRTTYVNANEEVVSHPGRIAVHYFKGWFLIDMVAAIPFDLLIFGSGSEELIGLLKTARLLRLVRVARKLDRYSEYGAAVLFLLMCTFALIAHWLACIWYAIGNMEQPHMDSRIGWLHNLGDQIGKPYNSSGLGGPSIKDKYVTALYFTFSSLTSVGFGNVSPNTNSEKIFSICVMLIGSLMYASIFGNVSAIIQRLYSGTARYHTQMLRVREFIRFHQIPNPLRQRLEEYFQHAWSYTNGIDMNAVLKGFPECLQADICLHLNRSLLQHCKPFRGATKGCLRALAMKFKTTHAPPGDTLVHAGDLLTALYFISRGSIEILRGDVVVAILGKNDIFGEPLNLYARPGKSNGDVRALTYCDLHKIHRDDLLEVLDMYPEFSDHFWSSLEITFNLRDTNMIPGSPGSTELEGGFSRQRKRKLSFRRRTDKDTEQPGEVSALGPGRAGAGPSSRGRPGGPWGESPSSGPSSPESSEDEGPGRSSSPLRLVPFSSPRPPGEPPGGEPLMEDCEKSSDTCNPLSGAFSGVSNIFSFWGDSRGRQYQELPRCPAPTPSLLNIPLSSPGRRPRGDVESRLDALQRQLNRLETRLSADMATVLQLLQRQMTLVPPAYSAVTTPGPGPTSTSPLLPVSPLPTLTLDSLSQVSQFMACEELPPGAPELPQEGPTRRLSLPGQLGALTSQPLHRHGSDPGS

Structure (SMILES) | hERG current change (%, negative = inhibition) at 10uM [%]
Cc1cccc(C)c1OCC(=O)Nc1cccc(-c2nnc(-c3ccccc3)o2)c1 | 4.24
Cc1csc(SCC(=O)NC(=O)NCc2ccccc2)n1 | -0.745
Cc1cc2occ(CC(=O)N(C)CC(=O)Nc3cccc(F)c3)c2cc1C | 1.3
N=C1C(c2ccccc2)=C(O)C2CCc3ccccc3N12 (stereo not drawn) | 5.66
Cc1cccc(NC(=O)CN(c2ccc(C(C)C)cc2)S(=O)(=O)c2c(C)nn(C)c2C)n1 | -12.2
COc1ccccc1Nc1ncnc2c1oc1ccccc12.Cl | 14.2
CCc1nn2c(NCCOC)cc(C)nc2c1-c1ccc(F)cc1 | -3.29
CCn1c(N2CCN(Cc3ccc([N+](=O)[O-])cc3)CC2)nc2ccccc21.Cl | -74.7
CC(=O)NC1CC2CCC(C1)N2Cc1ccc(C)cc1 (stereo not drawn) | -25.4
O=C(CSc1nncc2ccccc12)Nc1ccc(F)cc1 | 16.8
CCCc1ccccc1OCCNC(=O)c1cc(=O)n(C)c(=O)n1C | -10.6
CCOC(=O)c1ccccc1NC(=O)C1CCCO1 (stereo not drawn) | 2.74
CSc1nc(-c2ccc(Cl)cc2)c(C#N)c(=O)n1C | 15.6
O=C(NCCS(=O)(=O)c1ccc(Br)cc1)c1ccccc1Cl | 9.41
Cc1ccc(/C=N/n2cc(-c3ccccc3)[nH]c2=S)s1 | 30.6
CCCN1CCC2(CC1)NC(CO)(CO)CO2 | 10.9
Cc1ccc(C(=O)N2CCOCC2)c(F)c1F | 6.52
O=C(Nc1cccc(-n2cnnn2)c1)c1cc(Cl)ccc1Cl | -2.42
O=C(NC1CCCC1)C(c1ccc(F)cc1)N(C(=O)Cc1cccs1)c1ccc2c(c1)OCCO2 (stereo not drawn) | 85.8
O=C(Cc1ccc(Cl)cc1)NCC(=O)N1CCCCCC1 | -12.8
Oc1ccc(C[C@H]2NCCc3cc(O)c(O)cc32)cc1O | 2.62
Cc1nn(-c2ccccc2)c(NC(=O)c2cccs2)c(-c2ccccc2)c1=O | 11.8
CCOC(=O)/C(C#N)=C/c1c(N2CCN(C)CC2)nc2c(C)cccn2c1=O | -26.1

Structure (SMILES) | hERG current change (%, negative = inhibition) at 10uM [%]
CC(C(=O)N1CCCC1)N(C)CC(=O)Nc1cccc(F)c1 (stereo not drawn) | -0.435
CCc1ccc(NC(=O)CSc2nc3ccccc3c(=O)n2CCN2CCOCC2)cc1 | -67.6
O=C(CN1CCN(c2ccccc2)CC1)Nc1ccc(F)cc1 | -39.7
CC1(C)Cc2c(sc(NC(=O)C(=O)N3CCOCC3)c2C#N)CO1 | 17.7
NC(=O)COc1ccc(Nc2nnc(-c3ccc(O)cc3)c3ccccc23)cc1 | -23.2
COc1cc(C(=O)NNc2nc3cc4c(cc3s2)OCO4)cc(OC)c1OC | 4.6
CC(=O)N1c2ccc(S(=O)(=O)N3CCCC(C(=O)Nc4cccc(Cl)c4)C3)cc2CC1C (stereo not drawn) | 6.1
COc1ccc(NC(=O)NNC(=O)c2cc3ccccc3cc2O)cc1 | 18.2
COc1ccc(S(=O)(=O)N(Cc2ccccc2)c2ccccc2C(=O)Nc2ccccc2C(=O)NCc2ccco2)cc1 | 20.3
CC(=O)Oc1ccc2c(=O)c(N3C(=O)c4ccccc4C3=O)c(C)oc2c1 | 3.08
c1cc2c(nn1)CCc1nonc1-2 | 21.9
CCN1C(=O)[C@H]2[C@@H](c3ccc(C)cc3)N3C(=O)N(c4cccc(Br)c4)C(=O)[C@@]3(CC)[C@H]2C1=O | 0.974
c1ccc(CNc2c3c(nc4ncnn24)CCC3)cc1 | -0.503
CC(C)(CC(=O)O)CC(=O)N1CCN(c2nc3ccc(Cl)cc3s2)CC1 | 14.2
COc1ccc(NC(=O)c2ccccc2NC(=O)C2CCCO2)cc1 (stereo not drawn) | 2.9
COc1ccccc1Nc1nnc(SCc2cc(=O)n3ccsc3n2)s1 | -8.42
COC(=O)C(C)Sc1ncnc2c1c(-c1ccccc1)cn2-c1ccc(OC)cc1 (stereo not drawn) | 4.16
Cc1c(NC(=O)c2c(O)c3ccccc3n(C)c2=O)c(=O)n(-c2ccccc2)n1C | 16.2
COC(=O)c1ccccc1NC(=O)COc1ccc(S(=O)(=O)NC(C)C)cc1 | 36.2
CCOc1ccc(NC(=O)C(CC(=O)O)Cc2ccccc2)cc1 (stereo not drawn) | 5.94
CSc1ccc(S(=O)(=O)NCc2ccc(Cl)cc2Cl)cc1 | -1.53
COc1cc(C2CC(=O)Nc3ccccc3S2)cc(OC)c1OC (stereo not drawn) | -12.7
